Over roughly 110,000 compounds, “z-score” has its median near -0.1; the highest 2% begin near 2. The list shows a part of the results.
Each molecule was assayed against Metabotropic glutamate receptor 8 (Rattus norvegicus) (UniProt P70579) (assay: mGluR8 Gi/Go-coupled signaling modulation – cell-based, rat, thallium flux, HTS, primary screen (AID 488969)). Conditions: HEK293 rat mGluR8, GIRK (G protein-gated inwardly rectifying potassium channel) thallium flux, FluoZin2; at 10 µM; stronger effect = higher value; submaximal glutamate (EC20) added with thallium.
Chain of UniProt P70579 (P70579 whole entry, looked up): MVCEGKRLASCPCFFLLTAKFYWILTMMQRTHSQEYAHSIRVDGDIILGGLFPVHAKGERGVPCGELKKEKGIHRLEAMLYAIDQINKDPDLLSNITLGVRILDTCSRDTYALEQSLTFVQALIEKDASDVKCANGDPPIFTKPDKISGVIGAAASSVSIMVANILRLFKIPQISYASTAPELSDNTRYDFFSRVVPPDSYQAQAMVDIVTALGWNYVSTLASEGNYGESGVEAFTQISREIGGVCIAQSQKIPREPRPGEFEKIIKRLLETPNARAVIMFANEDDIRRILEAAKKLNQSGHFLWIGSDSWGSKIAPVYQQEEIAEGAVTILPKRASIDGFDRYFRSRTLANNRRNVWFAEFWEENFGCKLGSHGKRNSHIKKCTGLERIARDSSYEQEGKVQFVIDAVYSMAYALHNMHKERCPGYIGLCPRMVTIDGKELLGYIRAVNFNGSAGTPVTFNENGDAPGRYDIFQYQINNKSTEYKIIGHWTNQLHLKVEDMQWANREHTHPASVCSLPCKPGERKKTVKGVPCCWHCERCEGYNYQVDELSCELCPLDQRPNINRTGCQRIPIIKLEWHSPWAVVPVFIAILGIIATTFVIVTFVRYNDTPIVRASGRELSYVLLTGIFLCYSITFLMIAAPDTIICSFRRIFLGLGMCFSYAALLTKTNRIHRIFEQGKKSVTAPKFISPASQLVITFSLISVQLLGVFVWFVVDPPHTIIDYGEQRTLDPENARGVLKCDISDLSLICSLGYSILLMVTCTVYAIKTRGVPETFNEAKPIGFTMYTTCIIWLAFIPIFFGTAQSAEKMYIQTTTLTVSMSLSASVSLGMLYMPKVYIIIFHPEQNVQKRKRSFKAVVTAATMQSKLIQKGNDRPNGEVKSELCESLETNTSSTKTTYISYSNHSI

SMILES	z-score
Cc1[nH]nc(SCC(=O)Nc2ccc(C#N)cc2)c1[N+](=O)[O-]	-0.386
Cc1c(C(=O)NC(C)C)oc2c1-c1[nH]ncc1CC2	0.204
Cc1cccc(Nc2ncc3c(n2)CC(C)CC3=O)c1 (centres undefined)	0.341
CCCCCOC(=O)C1=C(C)Nc2nnnn2C1c1ccccc1Cl (centres undefined)	-0.123
Cc1ccc(C)c(N2C(=O)CC(N3CCN(Cc4ccc5c(c4)OCO5)CC3)C2=O)c1 (centres undefined)	-0.278
COc1ccc(CCNC(=O)C2=COCCO2)cc1	-0.23
CC(=O)Oc1ccc(-c2cccc(C(=O)OCC(=O)N(C)c3ccccc3)c2)cc1	0.419
COc1ccc(C2N(c3ccccn3)C(=O)C3CCCN32)c(OC)c1 (centres undefined)	-0.103
COc1cc2[nH]c(=O)n(CCC(=O)N3CC=C(c4ccccc4)CC3)c(=O)c2cc1OC	-0.0927
Cc1[nH]c2ccccc2c1SCCN	-0.0524
Oc1ccc(Br)cc1-c1cc(-c2ccco2)[nH]n1	-0.7
CC(=O)NCCC(=O)Nc1ccc(F)cc1C	0.219
Cc1ccc(CCN2CC(C(=O)NCCN3CCCCCC3)CC2=O)cc1 (centres undefined)	0.736
O=c1[nH][nH]c(-c2ccccc2)c1C=Nc1cccc(Cl)c1	-0.34
COc1ccc(-c2cc(C(F)F)n3ncc(C(=O)N4CCSCC4)c3n2)cc1	-0.659
O=C1NC(=S)N(c2cccc(Cl)c2)C12CCCCC2	1.65
Cc1ccccc1OCC(=O)N(Cc1ccc(N(C)C)cc1)C1CCS(=O)(=O)C1 (centres undefined)	-0.674
CCCCc1nc2n[nH]c(N)c2c2c1CCCC2	-1.12
CC(=O)Nc1ccc(NC(=O)COC(=O)c2c3c(nc4ccccc24)CCN(Cc2ccccc2)C3)cc1	-0.0467
COc1cccc(-c2noc(CCC(=O)NC3CCCCC3)n2)c1	-0.132
Cn1c(=O)c2[nH]c(-c3ccccc3O)nc2n(C)c1=O	-0.0265
CCCC(=O)Nc1ccccc1-c1nnn(CC(=O)Nc2ccc(OC)cc2)n1	-1.18
CCCSc1nnc(NC(=O)c2nc(SC)ncc2Cl)s1	0.267

SMILES	z-score
O=C(CN1CCN(C(=O)c2ccco2)CC1)Nc1ccccc1-c1ccccc1	0.108
CC(C)[C@@H]1N[C@]2(C(=O)Nc3ccccc32)[C@@H]2C(=O)N(c3cccc(C(F)(F)F)c3)C(=O)[C@@H]21	-0.346
O=C(CSc1nnc(-c2ccccc2)o1)N1CCOCC1	-0.473
Cc1cccc(NC(c2ccc(O)cc2)c2ccc3ccc(C)nc3c2O)n1 (centres undefined)	-0.308
Cc1ccn2c(NC(=O)c3ccco3)c(-c3ccccc3)nc2c1	0.468
NCCCC(=O)N1c2ccccc2Sc2ccccc21	0.267
O=C1C2C3C=CC(C4CC34)C2C(=O)N1/N=C/c1ccc(-c2cccc([N+](=O)[O-])c2)o1 (centres undefined)	-0.396
Cc1ccc(C(=O)c2cc([N+](=O)[O-])ccc2N2CCCCC2)cc1	-0.438
O=C(N/N=C/c1ccncc1)c1ccccc1	-0.153
Cn1c(SCC(=O)NCc2ccc3c(c2)OCO3)nnc1C1COc2ccccc2O1 (centres undefined)	-0.0878
Cc1ccc(OC(=O)NC2CCS(=O)(=O)C2)cc1C (centres undefined)	0.186
Cc1ccc(CNC(=O)CN(C)S(=O)(=O)c2cccc3cccnc23)cc1	-0.061
O=C(NC(=S)N1CCN(c2ccc([N+](=O)[O-])cc2Cl)CC1)c1ccco1	1.05
COc1ccc(-n2c(SCC(=O)c3c(N)n(C)c(=O)n(C)c3=O)nc3ccccc32)cc1	0.304
COc1cccc(NC(=O)[C@@H]2CCCN2C(=O)C2CCN(S(=O)(=O)c3ccc(C)cc3)CC2)c1	-0.205
O=C(/C=N/O)NCCN1CCCCC1	0.135
O=C1NC(c2ccccc2)=NC1(Nc1ccccn1)C(F)(F)F (centres undefined)	0.148
C=CCNC(=O)c1ccccc1NC(=O)c1ccccc1C	0.287
CSC1=C(C#N)C(c2ccc(C)s2)CC(=O)N1 (centres undefined)	-0.481
O=C(NC1(C(F)(F)F)NC(=O)N(Cc2ccco2)C1=O)c1cccs1 (centres undefined)	-0.323
Nc1ncnc2c1ncn2CCNCCc1ccccc1	-0.981
CC(=O)Nc1ccc(NS(=O)(=O)c2cn(C)c(=O)n(C)c2=O)cc1	-0.124
CC(C)[C@H](NS(=O)(=O)c1cccc(Cl)c1)C(=O)OCC(=O)N1CCN(c2ccccc2)CC1	-0.62

SMILES	z-score
COc1cccc(N2C(=O)C3C(C2=O)C2C=CC3C23CC3)c1 (centres undefined)	0.0195
Cc1ccc(OC(=O)COc2ccccc2)c(-n2nc3ccccc3n2)c1	-0.00045
CCOc1ccc(Nc2nc3cc(S(=O)(=O)N(CC)CC)ccc3o2)cc1	0.27
CC1SC(c2ccc(Cl)cc2Cl)NC1=O (centres undefined)	-0.0303
COc1ccc(-c2noc(CCC(=O)Nc3cc(Cl)c(OC)cc3OC)n2)cc1	-0.134
CCC1CCCCN1C(=O)c1noc(C(C)C)c1[N+](=O)[O-] (centres undefined)	-0.317
COC(=O)Cn1cc(/C=N/NC(=O)c2ccc(C#N)cc2F)c2ccccc21	0.0803
Cc1ccccc1C(=O)NC(=S)Nc1ccc(S(=O)(=O)N(C)c2ccccc2)cc1	1.07
COc1ccc(Br)cc1C(=O)NC(=S)Nc1cc(-c2nc3ccccc3[nH]2)ccc1C	-0.25
COCCCNC(=O)c1oc2ccc(S(=O)(=O)N(C)C3CCCCC3)cc2c1C	-1.01
CCCc1cc(C(N)=O)c(NC(=O)c2cc(C)on2)s1	-0.444
CCN(CC)c1nc(N)c2c(N)n(-c3ccccc3C)c(=S)c(C#N)c2c1C#N	0.161
O=C(CSCC(=O)N1CCCCC1)Nc1nc(-c2ccc(Cl)s2)cs1	2.68
COc1ccc(C(=O)/C=C/c2ccc(OC)c(O)c2)c(F)c1	-0.337
CCCCC(=O)Nc1ccc(NC(=O)c2cccnc2)cn1	0.115
Cc1ccc2cc(CN(C(=O)c3ccncc3)C(C)C)c(=O)[nH]c2c1	0.449
CCC1(C)CC(CC(=O)O)(c2ccccc2OC)CCO1 (centres undefined)	0.473
CC(=O)c1cnc2nc(C(F)(F)F)nn2c1C	0.218
Cn1c2ccccc2c2c(C(=O)NCCCN3CCCC3=O)cn(C3CCCCC3)c(=O)c21	-0.475
Cc1ccc(-c2n[nH]c(=O)c3ccccc23)cc1S(=O)(=O)Nc1ccccc1	-0.913
CCCn1c(SCC(=O)c2ccc(CC)cc2)n[nH]c1=O	-0.42
O=C(NCC(=O)N(Cc1cccs1)C(C(=O)NC1CCCC1)c1cccnc1)c1ccco1 (centres undefined)	-0.0892
CC(C)c1nc2sc3c(=O)n(N)cnc3c2c2c1COC(C)(C)C2	-0.406

Reference: PubChem BioAssay AID488969 (Vanderbilt High Throughput Screening Facility, 2010)
